# Experimental data: the supplement of paper PMC3334620
# In all, about 33,000 sequences were measured (“E-score (-0.5 to 0.5)”: median about -0.016, highest 2% from about 0.32 on). This is one part of the list.
# Biological target: T1, Stp1 (UniProt B3LFK1)
# T1 sequence: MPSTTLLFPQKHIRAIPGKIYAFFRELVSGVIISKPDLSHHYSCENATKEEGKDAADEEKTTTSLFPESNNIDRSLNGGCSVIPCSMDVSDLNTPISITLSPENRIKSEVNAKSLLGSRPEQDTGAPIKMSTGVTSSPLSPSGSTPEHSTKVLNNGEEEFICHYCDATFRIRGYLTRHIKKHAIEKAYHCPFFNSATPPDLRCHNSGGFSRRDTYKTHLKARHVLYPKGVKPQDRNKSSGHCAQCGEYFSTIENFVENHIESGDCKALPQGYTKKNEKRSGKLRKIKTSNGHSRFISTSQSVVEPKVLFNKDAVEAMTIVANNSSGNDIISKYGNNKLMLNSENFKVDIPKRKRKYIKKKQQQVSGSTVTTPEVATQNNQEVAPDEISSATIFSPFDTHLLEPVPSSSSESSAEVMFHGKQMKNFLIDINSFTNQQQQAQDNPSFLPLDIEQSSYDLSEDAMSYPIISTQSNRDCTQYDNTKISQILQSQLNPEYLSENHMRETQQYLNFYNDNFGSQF
# Assay: PBM E-score (8-mer binding enrichment) (E-score (-0.5 to 0.5)); higher = stronger / more preferred TF binding; most listed sequences are background and not binding sites
# Settings: protein concentration: 200 nM; construct: GST-full length
# How it was run: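 PURExpress in vitro transcription/translation supplied GST-tagged yeast transcription factors, either full-length or DNA-binding domain. Applied at about 100-200 nM to universal all-10-mer Agilent arrays double-stranded by primer extension, the bound protein was detected with fluorescent anti-GST. E-scores, modified Wilcoxon-Mann-Whitney statistics, were given by the Universal PBM Analysis Suite to ungapped eight-base words pooled with their reverse complements after masliner normalisation.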
row,Sequence,PBM E-score
1,AGCGTGGA,-0.163
2,CGGTTCAA,-0.0478
3,GGGGTAAC,-0.212
4,GGAGCTCA,-0.177
5,ATTGCTAG,-0.0468
6,ACAGGCTC,-0.0278
7,AACATCGA,0.0516
8,CACAGCCG,0.327
9,CTCAGAAC,0.14
10,AGTCCTTA,-0.0931
11,CCGTTAAA,-0.00395
12,ATCACAAA,0.103
13,GCCAGGGA,-0.0384
14,CAGCCATC,-0.158
15,AGCGGGCG,-0.0865
16,ATACTACG,0.0658
17,CTATCCGC,0.219
18,GACCCAGC,-0.322
19,CTTATTGA,-0.0166
20,CAGGTCGG,-0.269
21,GCAGGAGA,-0.303
22,ACCACTTA,-0.0255
23,AGGCTTAG,0.0212
24,GCAAGGAA,0.0142
25,CAAAGTAC,0.0934

row,Sequence,PBM E-score
1,CACGAATA,0.031
2,AATTAAAC,0.122
3,AGATTCTA,0.152
4,ACCCGTAT,0.228
5,GCGTCTAC,-0.155
6,AGATATCT,-0.156
7,CTCGGTAA,-0.0899
8,AACAACAC,0.0941
9,CCATTCGG,0.14
10,AAGAGACT,-0.114
11,AAGCTTAT,0.162
12,AGATGGGC,-0.0834
13,TAGTAATA,0.151
14,ACTACCAT,-0.0853
15,ACTAGGGA,-0.282
16,ACGCCGAA,0.21
17,CAATAGGA,-0.016
18,CGAACCCG,0.0113
19,ACAAACGC,0.252
20,AACATTAC,0.0608
21,CATCAATA,-0.0571
22,CGAAACCA,0.194
23,ACCGATAT,-0.00052
24,CGTACGTA,0.205
25,AGCGCAGA,-0.0529

row,Sequence,PBM E-score
1,CGCGAAAC,0.0675
2,CGCCGGTA,-0.0704
3,CACGGGAG,-0.0449
4,CAGCCGAA,0.0173
5,ACGGGCCT,-0.00739
6,AAACTATT,-0.0623
7,GATCCGGC,-0.00579
8,CTCATATA,0.111
9,CGCATCCC,-0.175
10,GTTAAGTA,0.0335
11,AATATCGA,0.00691
12,ATGAATCC,-0.0822
13,CTGATGCA,-0.0407
14,ATGGTGAA,-0.0613
15,AAAACTAA,0.215
16,GCATTCCA,-0.00176
17,CCAGTGCG,-0.343
18,CATGTTGC,0.0394
19,ACCAATTC,-0.074
20,CGGCTCCA,0.425
21,CAAACAGA,0.0727
22,ATTCCGCC,0.125
23,CCGATGAC,-0.121
24,CCACTCGG,-0.0432
25,TATACGCA,0.156

row,Sequence,PBM E-score
1,AGTCGCGC,0.0334
2,ACAGCGAT,-0.163
3,CGTCCTGC,-0.219
4,CGATGACC,-0.31
5,ATCTTTAG,0.0678
6,ACAAGCGT,-0.135
7,ATGATAAG,0.0844
8,AATAAGGT,-0.117
9,ATCTAGGA,-0.116
10,ACACGGTG,0.154
11,CGGATCGA,0.0223
12,AAAGGCGA,0.0862
13,GGCGCTAC,0.269
14,CCACGGTC,-0.301
15,ACGACCAT,-0.324
16,CCAACCCA,-0.358
17,ATTCAGGC,0.0861
18,AGGTCAAT,-0.0414
19,AGAGCGTC,-0.166
20,GGCAGCTA,0.047
21,GTGCATCA,0.0717
22,AAGGCAGG,-0.236
23,AACGTGAG,-0.0998
24,AGCGGTAT,0.101
25,AATATTCT,-0.0438

row,Sequence,PBM E-score
1,CAGAACTG,0.197
2,CGGACCCA,-0.0338
3,CAGCCAAC,-0.242
4,CTATATAA,0.00322
5,ATTCCTAG,-0.0362
6,ACGGCTTG,0.335
7,CGGTGTGC,-0.132
8,TATCTGGA,-0.199
9,ACTTCTAC,0.0115
10,AGCGTGTC,-0.251
11,CGCCGACA,0.13
12,CACGCCGC,0.417
13,ACTGTACA,-0.116
14,TAAAAAAA,0.146
15,GGTTGAGA,-0.0845
16,CTATATGA,0.0978
17,TCCTGACA,0.012
18,ACCAGGAT,-0.0689
19,CCTCCGGC,-0.192
20,ACACCAAT,0.0311
21,CAATAAGG,0.0114
22,GCAATTAC,0.256
23,TAATCAAA,0.13
24,AAACCTAT,0.00219
25,ATGGCGGC,0.158

row,Sequence,PBM E-score
1,ACTGACCA,-0.304
2,AAACCAAC,0.0618
3,ATTATAGG,-0.0155
4,ATCGTATA,0.177
5,AATTACAC,-0.00481
6,CAAGTGCA,-0.129
7,GCAGATCA,-0.293
8,CCTCTACG,-0.0807
9,ATGTAGGC,-0.0572
10,ATACATTG,0.0644
11,TCGCACAA,0.0629
12,AGGCGGAA,0.0802
13,GGGCGGTA,-0.128
14,AGGCAACA,0.143
15,AACGTGCG,0.0982
16,ATAAGTGG,0.137
17,CGCACCAC,0.063
18,CTACTTCA,-0.0708
19,TCGCTGAA,0.0632
20,CACCTTCG,-0.0864
21,GGGTATAC,-0.208
22,GCGGACTA,-0.0967
23,CGAATTAG,0.0626
24,ACTCAGCG,-0.167
25,GGGCAAGA,0.0452

row,Sequence,PBM E-score
1,AGCATGAA,-0.118
2,ATGACCTC,-0.209
3,AATGGTCT,-0.0756
4,CTCGCATC,-0.0189
5,ACTATGCG,0.133
6,CACGGCTC,0.469
7,GCGTACAA,0.167
8,CCGTTTAC,0.235
9,CATGTACA,-0.041
10,CTATGTTA,0.153
11,CTTCAGAC,-0.00198
12,GATTAGAA,-0.0377
13,AAGATTGT,0.0815
14,ATTACTCC,0.0765
15,GTAGCCAC,-0.0824
16,GATGATGA,-0.171
17,CAACGTCC,-0.276
18,AAGATTTG,-0.0479
19,CCGTGACG,0.109
20,AATTGGCG,0.0797
21,AGGGGAAA,-0.223
22,AACTGCGC,-0.0192
